In the supplement of paper PMC3334620:
The full ranking holds about 33,000 sequences; the median of “E-score (-0.5 to 0.5)” is about -0.012, and the highest 2% start at about 0.27. Some of the results follow.

Target: T1, Vhr1 (UniProt P40522)
T1 sequence: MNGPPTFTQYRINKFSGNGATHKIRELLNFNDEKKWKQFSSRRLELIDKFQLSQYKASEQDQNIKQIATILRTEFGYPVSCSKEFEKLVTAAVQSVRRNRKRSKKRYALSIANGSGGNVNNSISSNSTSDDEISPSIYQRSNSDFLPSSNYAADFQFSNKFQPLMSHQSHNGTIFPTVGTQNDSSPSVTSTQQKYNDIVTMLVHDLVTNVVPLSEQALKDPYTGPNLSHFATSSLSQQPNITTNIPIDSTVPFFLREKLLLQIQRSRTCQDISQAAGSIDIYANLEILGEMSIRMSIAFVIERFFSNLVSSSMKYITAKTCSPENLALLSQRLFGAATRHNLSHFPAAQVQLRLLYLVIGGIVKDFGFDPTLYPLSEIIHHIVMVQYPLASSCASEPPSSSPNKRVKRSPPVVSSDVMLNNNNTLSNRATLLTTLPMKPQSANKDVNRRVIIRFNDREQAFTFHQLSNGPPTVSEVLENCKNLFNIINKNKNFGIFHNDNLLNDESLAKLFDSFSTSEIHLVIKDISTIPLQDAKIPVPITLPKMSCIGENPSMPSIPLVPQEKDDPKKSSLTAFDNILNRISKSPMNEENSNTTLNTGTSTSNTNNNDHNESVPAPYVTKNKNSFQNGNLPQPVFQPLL
Assay: PBM E-score (8-mer binding enrichment) (E-score (-0.5 to 0.5)); higher = stronger / more preferred TF binding; most listed sequences are background and not binding sites
Conditions: protein concentration: 200 nM; construct: GST-full length
Outline: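 Universal all-10-mer Agilent arrays, fresh or stripped once, were converted to double-stranded form by primer extension. GST-tagged yeast transcription factors from PURExpress in vitro transcription/translation, full-length or DNA-binding domain only, were applied at about 100-200 nM and detected with fluorescent anti-GST. After masliner normalisation, the Universal PBM Analysis Suite scored each ungapped eight-base word together with its reverse complement by E-score.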

Sequence	PBM E-score
CAAGAGCC	0.05
AAGCCGGA	0.0929
AACGTCGC	-0.0398
CACTGGGC	-0.162
GCTAATCC	0.0989
CAAGATCG	-0.139
CTGTGGAA	-0.0565
CTGTAAGC	-0.0741
GGTGCATA	0.0499
TTGAGAAA	-0.096
GCGGACCA	0.213
ATGTAATA	0.201
TACAAGGA	0.0172
GGCTCCTA	-0.136
AAATTCTT	-0.278
CTTCACCC	0.192
TATCTGCA	-0.185
ACCTCCCG	0.0173
AATCCGGT	0.0561
CAGGGGAC	-0.0275
CGATGGCG	0.00489
AGCGGCAA	-0.136
GAGCCCCA	-0.221
AATTGAAC	-0.226
CCATACAG	0.191

Sequence	PBM E-score
ACCCCTGG	-0.0378
ACTATAGA	0.0018
GTCACGCA	0.0821
ACCACCGG	-0.0769
CAGCAAGC	-0.0187
ACTCACTC	0.254
CACCACTC	0.0971
CCATACTC	0.155
AAGTTGAA	-0.151
CATTTGCA	-0.118
AGAACCTA	-0.134
ATGTCTCG	0.135
AGTTCAAG	-0.168
ACCATCTA	-0.138
GCCTATGA	-0.141
AGCGCGCA	0.189
AATCCCTC	-0.164
CGAGCTTC	0.0561
CCCAAGAA	-0.093
ATAACTCG	0.0214
GTTATAAC	0.0717
ACCTTACT	-0.129
TAAGGCGA	-0.239
GATGGATA	0.0867
AATGCGAA	-0.0712

Sequence	PBM E-score
GTACGTAA	-0.131
AACAGAGT	0.131
GCCATAAA	-0.106
AATCCAAT	0.0231
GGTAAACC	-0.137
AAACACCT	0.0781
TATCGTGA	-0.0142
AGGTGTAC	-0.0435
AGTTCCAT	-0.0164
GAGTACCA	0.172
GCGCTGAA	-0.203
AAGAAAAA	-0.219
ATGACCTG	0.092
ACGCACCG	0.192
CGTTGCGA	0.0286
CTACTGAG	0.0769
TCCAAAGA	-0.0349
CCTCAATA	-0.0536
ATTACTGA	0.0126
AAGATGTG	0.0243
ACGCCCAC	0.0539
GGACTACC	0.00048
GGTTGTGA	0.143
GGCGTCTA	-0.208
TTAGACAA	-0.116

Sequence	PBM E-score
TAGCTTAA	-0.043
ACTATGCA	0.188
TAATATAA	0.249
GAAGCGCC	0.00289
GCTGACTA	0.324
GACGCAAA	0.0593
AAGGATGC	-0.241
CCTGCTAG	-0.101
ACATCTCG	-0.0449
AGGCATTC	-0.154
AATGAGTG	0.157
ATGCGGTC	-0.0122
CTGATCGC	-0.0109
AAGAATCC	-0.0882
CCATGCGA	0.0318
CCCGCCCC	0.329
ATCACTAA	-0.0231
ACAGGCGC	-0.173
AGCAGAAG	0.0736
GAAGGATA	-0.0495
AAATTATC	-0.00042
CGTTTGAC	-0.0627
GACGTAAC	-0.0416
GTGTAGGA	0.115
AGATTGAC	0.241

Sequence	PBM E-score
CGAGTCAC	0.467
CCGCGAGA	-0.0874
GAGCGCAA	-0.221
TCGTATCA	0.064
GCGGGTTA	0.137
CGCTCCGC	-0.0695
CCAGCACA	-0.0321
TAGGCTAA	-0.169
GTAGTGAA	-0.035
GAACAAAA	0.0736
TCTTTGAA	-0.151
CACTATCA	0.111
ATTTCTAG	-0.259
ACCCAGGA	-0.00244
CCCACATA	0.107
CAGTTCAA	0.00019
AACCAAAA	0.0587
ATCCTTTA	0.00087
ATTTATGA	0.101
ACGGTTAA	-0.0459
ATGATCGG	0.0799
GTGTATGA	0.156
AGAGGTAT	0.144
CACGCGAA	-0.0722
CACAAGTG	-0.144

Sequence	PBM E-score
AATCTGCA	0.0587
TAAGTCTA	-0.165
GCACTGAA	-0.0863
ATCAGCTC	0.0903
ATGTAGTA	0.0473
CGGCCCCC	-0.109
CTTTAGGA	-0.0625
TGTTGAAA	-0.0954
CTAACCCA	0.205
TGTGAGAA	0.0282
TCCACCCA	0.111
GAGAGTCA	0.43
ACGGGATC	0.0824
CAGCACGA	0.128
GAACGGCA	0.0247
GCCGCTAC	0.028
AGTATGTG	0.224
CACGTAAC	-0.0713
GGGATTTA	-0.29
ATGAGCTA	0.101
AAGCTGTG	-0.00453
ACCATCAT	0.209
GTTAAATA	-0.176
AATCCTAC	-0.159
CATCAAGC	0.00939

Sequence	PBM E-score
AGTCCAGC	-0.0848
ATTCGGCA	-0.0363
CCATAACA	0.121
AGTCTTAA	-0.136
ATTTCTAA	-0.352
AGCGCGAC	0.0938
CCCAGAAC	-0.00576
ATTGGGTC	0.0626
CTAGCTAA	0.0696
ACCGCTCG	0.0855
GTTGAGTA	0.147
CGGAGTTC	0.0825
AATTGTGA	-0.00733
AGTCCCAA	0.0517
CGATTCCA	0.0812
AACATTCC	-0.195
AACCTTTG	-0.194
GGCCGCCC	0.0955
GGTTAACC	0.152
AAGCGTCA	-0.0962
ATGAAACC	0.137
CGAGGTTC	0.0424
AGGTTACC	0.0706
GTCGCAAA	0.0617
ATCCTCTC	-0.133

Sequence	PBM E-score
GGGAGGCA	-0.0882
ACAAAGAT	-0.061
AGGCTGTA	-0.0542
CGTACCCC	0.225
CGTTCCGA	-0.0715
ACCCTACG	-0.0219
AGTCATAC	0.407
ACCGGGAT	0.168
GCACATCC	0.116
CCACAACA	0.00513
ACACCGGT	-0.0115
ACATGGAA	0.0558
CGACCAGC	0.0387
ACATTATC	0.115
AATTCCTA	0.103
CTAGGCAG	-0.0785
ACGGTACC	-0.0221
ATGTACAA	0.00877
CGCTCCTC	-0.252
TAACCAGA	-0.0941
ACTGCCAT	-0.0286
ACAATATA	0.221
CTATGCAA	-0.0565
CTCCAGTA	0.0593
GCTGTGTA	0.239

Sequence	PBM E-score
CTCTAAGC	-0.0218
ACAAAGAC	-0.0296
CATAGGGA	0.0674
CCCCCTCA	-0.317
ATGCGAGC	0.104
ACTCTGCT	-0.124
CCACACTC	-0.0226
GCACGTAC	-0.0574
ACACTTTC	-0.0279
ATACAAAA	0.108
CATCAGTC	0.124
ACCTAGGC	-0.155
ACGCAGTG	-0.0361
ACCCCAAC	-0.0535
ACGTGGAT	0.0503
CCGAATAG	-0.0344
TTCCCGAA	-0.0124
TCCTACGA	-0.078
AAGCTCTC	-0.207
AGTGGGGA	0.0039
ATATATAA	0.247
AAATTGAC	-0.0349
CCTTTTAG	-0.228
CCCGTATA	-0.046
ATGTCTCA	0.297

Sequence	PBM E-score
ATATTTTG	0.0404
ACTGTGTA	0.246
AGTTACTC	0.0219
ACGCTATA	-0.207
TCAGAAGA	-0.227
GTCTAGTA	0.00945
ATGGCTGC	0.00596
ACGGAACG	0.0232
ACTAGTTA	0.0376
CCTAATAC	-0.0139
CAGTGGCC	-0.0187
CCCCTTGC	-0.104
CAAATAGC	-0.259
CTCCTGTA	0.15
ACGACCGC	-0.112
CTTATAAA	-0.0532
CGCAAACA	0.215
AGATTGCG	0.00995
GCGCGCTA	0.08
GTATCTCA	0.209
CACCGTCA	9e-05
GGTCGAAC	0.00191
AAGGTCGA	0.0716
GGTAGTAA	-0.193
CCACAACG	0.0129

Sequence	PBM E-score
TATCCGGA	0.035
GCCGTAAA	-0.139
CAATCGTG	0.0174
CCGGGGCG	0.0969
CATCCACG	0.158
GCCATGCA	0.0792
ATTCTTTA	-0.0759
CAGAGCTG	0.123
AATCAGAC	0.201
CTGGGAAA	-0.091
AGTCATAA	0.344
GGAGAAAA	-0.292
AGATGACA	0.0194
TCATCTAA	0.0171
ATAAATGA	0.0874
GGATACCC	0.0288
CGCGTCCA	-0.0119
CGCCTTTC	-0.197
CCGAGTCC	0.144
AAGATGCA	-0.00472
TAATTGAA	-0.232
AGACGAAA	-0.0833
CCAGCGCC	-0.0357
AATCCCAT	-0.0448
CGAGATCG	-0.00314

Sequence	PBM E-score
GATCCCGC	0.129
AGCTTCAT	0.07
CGACCCGC	0.0268
CCATATCA	0.0898
ACGCCTGG	0.172
GTTTTTTA	-0.121
CGGGCAAC	-0.0522
GTACCACA	0.0851
CATAATAG	0.158
AACTTTAC	-0.182
ATGCACCA	-0.0664
AAGCGAAT	0.14
CCGGTAGG	-0.0639
GCTTCTCA	-0.102
CACTCGGC	0.0851
AGTCTTTC	-0.0189
CCTCGGGA	-0.0287
AACTACTC	0.19
AGACATAT	0.16
CACTCGTC	-0.0397
GAACTACA	0.0295
GTGATCCA	0.00284
AAAGCCGG	0.033
CCCGACGG	-0.0105
ATAAGTTC	-0.00316

Sequence	PBM E-score
TATCGCCA	-0.0719
CATCACAA	0.0244
TATCGACA	0.126
ACAAGTCT	-0.0553
GCCCTTAA	-0.203
GAAGGGTC	-0.29
AGCGGCGC	-0.158
CGACATCA	0.0119
GGGAGCCA	0.108
AGATAGTA	0.113
GCGGCCTA	-0.00531
AACAAGAG	-0.078
CATGCCAC	0.102
AAAATTAA	-0.319
CTTTCACA	-0.0605
TACGTGAA	-0.155
CTAAGGGA	-0.0527
AATGCCTG	-0.13
AGCGGTCC	-0.076
CTACTCAG	0.153
GAACGGTC	0.0379
TCTTTTCA	-0.176
ACGCTCCC	-0.108
AAGCCATA	-0.00918
CTATGTAC	0.0252

Sequence	PBM E-score
GAGACGGC	0.0617
CGGCACCA	0.035
GATTAAGA	0.131
AATACCAA	0.144
GGATCAGA	-0.0527
AACTAATC	0.143
ATTACCAC	0.0687
AGGAAAAT	-0.159
AATATATC	0.101
GAAGCTTA	-0.257
AACTGACA	-0.00603
ATCAGTCA	0.306
ATGAACTC	0.139
CTCTTAGC	-0.0998
GAATAACA	0.171
AGGTTTGG	-0.0629
ACAAGTCC	-0.182
ATCTAGAT	-0.0279
CAGTGCCA	-0.151
